Source: PMC4336329 (PLoS ONE, 2015)
In all, about 310,000 compounds went through this assay and about 2,200 (0.71%) showed an effect of 50% or more. The effect is printed as a negative number. This is one part of the list.

These compounds were tested against human ether-à-go-go-related gene (hERG) potassium channel (human, UniProt Q12809) (assay: primary screen, population patch clamp on CHO cells stably expressing hERG).
Chain of human ether-à-go-go-related gene (hERG) potassium channel (Q12809 whole entry, looked up): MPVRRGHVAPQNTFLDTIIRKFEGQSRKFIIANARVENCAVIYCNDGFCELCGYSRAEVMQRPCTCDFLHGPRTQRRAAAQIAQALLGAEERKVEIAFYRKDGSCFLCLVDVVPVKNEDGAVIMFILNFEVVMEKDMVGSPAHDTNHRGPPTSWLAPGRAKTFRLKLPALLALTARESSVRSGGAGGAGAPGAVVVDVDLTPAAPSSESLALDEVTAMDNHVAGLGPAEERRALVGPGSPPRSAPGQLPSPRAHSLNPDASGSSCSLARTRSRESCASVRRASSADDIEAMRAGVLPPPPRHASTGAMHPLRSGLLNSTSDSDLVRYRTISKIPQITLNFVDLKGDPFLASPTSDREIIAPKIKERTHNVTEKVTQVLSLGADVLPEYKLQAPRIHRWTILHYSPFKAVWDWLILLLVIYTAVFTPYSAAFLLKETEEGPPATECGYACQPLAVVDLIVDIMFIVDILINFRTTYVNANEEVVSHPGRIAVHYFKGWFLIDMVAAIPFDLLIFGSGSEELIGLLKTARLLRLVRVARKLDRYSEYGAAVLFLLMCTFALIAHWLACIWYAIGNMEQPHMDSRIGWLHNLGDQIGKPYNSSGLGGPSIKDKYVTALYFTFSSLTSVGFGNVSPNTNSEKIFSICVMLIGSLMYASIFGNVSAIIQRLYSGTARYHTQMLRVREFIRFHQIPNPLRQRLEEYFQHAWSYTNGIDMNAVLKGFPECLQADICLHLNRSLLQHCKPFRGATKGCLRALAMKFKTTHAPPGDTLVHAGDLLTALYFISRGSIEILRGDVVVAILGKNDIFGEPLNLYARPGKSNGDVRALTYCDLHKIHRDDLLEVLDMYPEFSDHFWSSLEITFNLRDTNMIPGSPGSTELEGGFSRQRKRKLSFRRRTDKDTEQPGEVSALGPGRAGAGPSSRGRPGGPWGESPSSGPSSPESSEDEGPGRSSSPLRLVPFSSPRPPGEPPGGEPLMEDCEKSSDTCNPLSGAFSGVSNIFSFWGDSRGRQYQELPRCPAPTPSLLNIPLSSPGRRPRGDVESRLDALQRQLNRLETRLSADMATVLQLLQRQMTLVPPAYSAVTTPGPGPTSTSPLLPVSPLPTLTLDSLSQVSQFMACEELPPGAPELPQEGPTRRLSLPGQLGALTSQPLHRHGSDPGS

In order of rising “hERG current change (%, negative = inhibition) at 1uM” value:
1. COc1ccc(/C=C(\NC(=O)c2ccccc2)C(=O)NCc2cccnc2)cc1  -31.1%
2. COc1ccccc1CNC(=O)c1cc(-c2ccccc2)nn1CC1CC(c2cccnc2)=NO1 (centres unmarked)  -26.4%
3. C/C(=N/Nc1ccnc2cc(Cl)ccc12)c1ccc(N)cc1  -22.8%
4. COc1ccccc1N1CCN(CC(O)COc2ccc(C)c(C)c2)CC1.Cl (centres unmarked)  -18.8%
5. O=c1c2nncn2c2cccnc2n1CCNc1ncc(C(F)(F)F)cc1Cl  -15.1%
6. COCCCn1c(SCC(=O)Nc2sc3c(c2C#N)CCCC3)nnc1-c1ccncc1  -13.5%
7. CC(=O)Oc1cccc(C(=O)Nc2ccc(NC(=O)c3cccs3)cc2)c1  -10.3%
8. O=C(CN1CCN(CC(=O)Nc2ccccn2)CC1)Nc1ccccn1  -9.95%
9. COc1ccc(NC(=O)C2CCN(c3ncnc4c3nc3n4CCCCC3)CC2)cc1Cl  -9.47%
10. COc1ccc(S(=O)(=O)NCc2ccco2)cc1-c1nnc2c3ccccc3c(C)nn12  -6.26%
11. Cc1c(NC(=O)COC(=O)/C=C/c2cccc(Br)c2)c(=O)n(-c2ccccc2)n1C  -5.13%
12. Cc1cc(OCC(=O)Nc2cc(C(C)(C)C)on2)ccc1[N+](=O)[O-]  -3.14%
13. CCN(CC)CCn1c(O)c(N=O)c2ccccc21  -1.01%
14. CCOCC(=O)Nc1cccc(OC)c1  -0.338%
15. Nc1cc(=O)[nH]n1C1CCCCC1  -0.227%
16. C=CCN=C1CC(C)(C)CC(=O)/C1=C(\O)c1ccccc1  0.308%
17. Cc1cc(OC(=O)CCNC(=O)OC(C)(C)C)c2c3c(c(=O)oc2c1)CCC3  0.427%
18. CCOC(=O)CN1C(=O)C(O)(CC(=O)c2ccco2)c2ccccc21 (centres unmarked)  0.493%
19. Cc1noc(C)c1COc1ccccc1C(=O)N(C)CC(=O)Nc1cccc(F)c1  0.926%
20. O=C(NCC(=O)N1CCN(S(=O)(=O)/C=C/c2ccccc2)CC1)c1ccc(Cl)cc1  1.55%
21. O=C(Nc1ccccc1)c1cccc(N2C(=O)CCC2=O)c1  1.87%
22. COc1ccc(NC(=O)C2CCCN(C(=O)Nc3cccc(OC)c3)C2)cc1 (centres unmarked)  1.9%
23. CC(C(=O)O)c1ccc(C(=O)c2ccccc2)s1 (centres unmarked)  1.95%
24. COc1ccc(C(CCNCc2ccc(N(C)C)cc2)C(C)C)cc1 (centres unmarked)  2.49%
25. COc1ccc(C(=O)COc2ccc3ccc(=O)oc3c2)c(OC)c1  2.95%
26. O=C(Nc1nc2c(s1)CN(Cc1ccccc1)CC2)C1CCC1  3.08%
27. COc1cc(S(=O)(=O)N2CCN(Cc3ccc4c(c3)OCO4)CC2)c(C)cc1C  3.61%
28. COc1ccc(N2CCN(c3nc4ccc(C)cn4c(=O)c3C=O)CC2)cc1  3.89%
29. C/C(=N/NC(=O)CNC(=O)c1cccnc1)c1cccc([N+](=O)[O-])c1  4.23%
30. COc1ccccc1-n1nc(C)cc1N  4.33%
31. COc1cc(CC(=O)N(C)CC(=O)Nc2ccc(Cl)c(C(F)(F)F)c2)cc(OC)c1OC  4.37%
32. COc1cc2ccc(=O)oc2c(O[C@@H]2O[C@H](CO)[C@@H](O)[C@H](O)[C@H]2O)c1O.O  4.52%
33. CC1CC(C)CN(C(=O)CSCC(=O)O)C1 (centres unmarked)  4.57%
34. Cc1csc(NC(=O)c2ccc3c(c2)OCO3)n1  4.57%
35. COc1ccc(N=C2SC(CC(=O)Nc3ccccc3OC)C(=O)N2Cc2ccco2)cc1 (centres unmarked)  4.75%
36. CCOC(=O)c1cnn(Cc2cccc(Cl)c2)c1C  4.98%
37. COCCCNC(=O)c1ccc(NS(C)(=O)=O)cc1  5.97%
38. Cc1cccc(/C=N/n2c(C)nnc2C)c1  6.06%
39. CN(CCCn1c(=S)[nH]c2ncccc2c1=O)Cc1ccccc1  6.4%
40. CCOC(=O)CCCSc1nnc(CCCCCN2C(=O)c3cccc4cccc(c34)C2=O)o1  6.5%
41. CC(C)Oc1ccc(CCC(=O)NNC(=O)CCC(=O)O)cc1  7.24%
42. N/C(=N\OC(=O)/C=C/c1ccccc1)c1ccc(Br)cc1  7.48%
43. N#Cc1cn(-c2ccccc2)nc1-c1ccco1  7.66%
44. CC(C)c1ccc2nc(SCC(=O)NCC3CCCO3)c(C#N)cc2c1 (centres unmarked)  7.83%
45. COc1ccc(OC)c(CC(=O)NC(c2ccccc2)c2ccccc2)c1  7.84%
46. O=S(=O)(Nc1ccccc1)c1ccc(F)cc1  7.86%
47. O=C(COC(=O)/C=C/c1cc(Br)ccc1F)Nc1ccc2[nH]c(=O)[nH]c2c1  8.58%
48. CC(C)(C)NC(=O)c1ccc2c(c1)CCO2  8.73%
49. COc1ccc2cc(C(N)=O)/c(=N\NC(=O)c3ccccc3)oc2c1  8.73%
50. CCCCC(=O)Nc1ccc2c3c(cccc13)CC2  8.78%
51. FC(F)(F)c1ccccc1CN1CCN(Cc2ccccc2)CC1  9.06%
52. CCOc1ccccc1C(=O)Nc1nn[nH]n1  9.18%
53. Cc1cccnc1NC(=O)CCCc1c[nH]c2ccccc12  9.95%
54. CCOc1cc(C(=O)NC2CCCCCCC2)cc(OCC)c1OCC  10.3%
55. O=C(NCC1CCCO1)c1cc2ccccc2[nH]1 (centres unmarked)  10.3%
56. COc1ccc(CCNC(=O)CC2Nc3ccccc3NC2=O)cc1 (centres unmarked)  10.4%
57. Cc1ccc(C(=O)Nc2cccc(-c3ccc(N4CCOCC4)nn3)c2)cc1[N+](=O)[O-]  10.4%
58. COc1cccc(-c2cc(C(=O)N/N=C/c3ccc(OC)c(COC(C)=O)c3)c3ccccc3n2)c1  10.4%
59. O=C(O)CN1C(=O)/C(=C\c2cccc(OCc3ccc(Cl)cc3Cl)c2)SC1=S  10.7%
60. CCOc1ccc(-c2cc(CCCC(=O)N3CCN(c4ccc(OC)cc4)CC3)no2)cc1  11.2%
61. COc1ccc(/C=N/n2cnc3c([nH]c4ccc(Br)cc43)c2=O)cc1CN1CCOCC1  11.6%
62. CCN(CC)CCN1CNC(=S)N(c2ccccc2OC)C1  11.7%
63. Brc1cc(Br)c2nc3c(cc2c1)CCC3  11.8%
64. Cc1ccc(-c2cc(C(=O)Nc3cc(C)on3)c3ccccc3n2)cc1  12.2%
65. CN(c1ccc(C(=O)NCCC2=CCCCC2)cc1)S(C)(=O)=O  12.3%
66. Cc1ccc(S(=O)(=O)Nc2cccc(C(=O)NCc3ccc(S(N)(=O)=O)cc3)c2)cc1  12.7%
67. N#Cc1ccccc1NC(=O)COC(=O)COc1ccccc1[N+](=O)[O-]  12.8%
68. Cc1ccc(N)cc1NC(=O)CN1CCOCC1  12.9%
69. CCOC(=O)C1CCCCN1Cc1cccc(OC)c1OC (centres unmarked)  13.1%
70. O=C(Cc1cccs1)Nc1nc2c(ccc3ccccc32)s1  13.1%
71. NC(=S)N/N=C1\c2ccccc2-c2c(C(=O)O)cccc21  13.2%
72. CC(C)C(NC(=O)/C=C/c1ccc(F)cc1)C(C)C  13.2%
73. CCn1c2c(c3cc(OCC(C)C)ccc31)CCCC2=O  13.3%
74. O=C(COC(=O)[C@@H]1CC(O)CN1S(=O)(=O)c1ccc2c(c1)OCCO2)NCc1ccc(F)cc1 (some centres unmarked)  13.9%
75. COc1ccc(C(=O)Nc2ccc3[nH]ccc3c2)cc1  14%
76. O=C1C(=O)N(CCO)C(c2ccccc2[N+](=O)[O-])/C1=C(\O)c1ccccc1 (centres unmarked)  14.6%
77. CC(C)CCN(Cc1ccco1)S(=O)(=O)c1ccc(-c2ccc(=O)[nH]n2)s1  14.9%
78. COc1ccc(CSc2n[nH]c(C)n2)cc1Br  15.4%
79. CCOC(=O)COc1nc(-c2ccc(C)cc2)cc(-c2ccco2)c1C#N  15.7%
80. CN(c1ccc(OC(=O)CN2C(=O)NC3(CCCC3)C2=O)cc1)S(=O)(=O)c1ccccc1  15.9%
81. Cc1ccc(S(=O)(=O)Cc2ccc(C(=O)N3CCN(c4cccc(C)c4C)CC3)o2)cc1  16.2%
82. COc1ccc2c(c1)OC(O)(C(F)F)CC2=O (centres unmarked)  16.4%
83. NC(=O)CC(NC(=O)Cc1ccc(Br)cc1)c1ccc(N2CCC(Br)CC2)c([N+](=O)[O-])c1 (centres unmarked)  16.8%
84. CC1(C)C/C(=N\O)C(C(O)c2cccc([N+](=O)[O-])c2)C(C)(C)N1 (centres unmarked)  17.9%
85. O=c1cc(N2CCCCC2)c(-c2ccccc2)n[nH]1  18.5%
86. CCOc1ccc(NC(=O)CN(C)C(=O)c2ccccc2SCC(=O)N2CCCC2)cc1OCC  19.9%
87. O=S(=O)(Nc1ccc(O)c2ccccc12)c1ccc(F)cc1  21.6%
88. COc1ccc(C(=O)Nc2ccc(NC(C)=O)cc2)cc1S(=O)(=O)N1CCCCC1C (centres unmarked)  23.2%
89. Nc1ccccc1C(=O)NCc1ccc(F)cc1  28.6%
